Among the test systems are COLO792; COLO800; COLO829; G361; IPC-298; IST-MEL1; LB2518-MEL; LOXIMVI; MEL-HO.
Common to all, as to assay: cell count relative to DMSO control; melanoma cells; higher = more viable cells
Common to all, as to settings: library dose: low library concentration; 72 h

Some of the results follow. Single values are uncertain, as repeats are few or missing.

The values below come from the supplement of paper PMC4604168 (melanoma cell lines).
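Also: cell number obtained by counting DAPI-stained nuclei in high-throughput microscope images with image analysis software, screen run in 1,536-well plates.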

On to `N#CC[C@H](C1CCCC1)n1cc(-c2ncnc3[nH]ccc23)cn1` [ruxolitinib] + COC(=O)c1sccc1S(=O)(=O)Nc1ccc(Nc2ccccc2)cc1OC [GSK0660] (first compound 1 µM, partner dose 1 µM), for which the cell count in the assay on COLO792 came out at 105%; in the assay with COLO800, 190%; in the assay on COLO829, 108%; in the assay on G361, 102%; in the assay with IPC-298 it was 100%; with IST-MEL1, 107%. For the same molecule, the cell count in the assay with LB2518-MEL was 123%; in the assay on LOXIMVI it was 192%; in the assay on MEL-HO, 93.3%.

Take `CC[C@]1(O)C[C@H]2CN(CCc3c([nH]c4ccccc34)[C@@](C(=O)OC)(c3cc4c(cc3OC)N(C=O)[C@H]3[C@@](O)(C(=O)OC)[C@H](OC(C)=O)[C@]5(CC)C=CCN6CC[C@]43[C@@H]65)C2)C1` [vincristine] + CC(C)(C)c1cnc(CSc2cnc(NC(=O)C3CCNCC3)s2)o1 [SNS-032] (first compound 0.0001 µM, partner dose 0.01 µM): the cell count stood at 90.4% in the assay with COLO792; 91.7% with COLO800; 99.7% in the assay on COLO829; 116% in the assay with G361; 109% in the assay on IPC-298; 89.1% in the assay on IST-MEL1. Besides, the cell count in the assay on LB2518-MEL came out at 78.3%; in the assay with LOXIMVI, 38.6%; in the assay on MEL-HO it was 104%.

For the molecule `CC[C@]1(O)C[C@H]2CN(CCc3c([nH]c4ccccc34)[C@@](C(=O)OC)(c3cc4c(cc3OC)N(C=O)[C@H]3[C@@](O)(C(=O)OC)[C@H](OC(C)=O)[C@]5(CC)C=CCN6CC[C@]43[C@@H]65)C2)C1` [vincristine] + COc1cc2ncnc(Nc3ccc(Oc4ccccc4)cc3)c2cc1OC [SrcI1] (first compound 0.0001 µM, partner dose 2 µM), the cell count with COLO792 turned out to be 94.6%; in the assay with COLO800, 99.9%; with COLO829, 89.3%; with G361 it was 93%; with IPC-298, 104%; in the assay with IST-MEL1 it was 87%. Moreover, the cell count worked out at 108% with LB2518-MEL, 88.5% with LOXIMVI and 103% with MEL-HO.

Consider `CC[C@]1(O)C[C@H]2CN(CCc3c([nH]c4ccccc34)[C@@](C(=O)OC)(c3cc4c(cc3OC)N(C=O)[C@H]3[C@@](O)(C(=O)OC)[C@H](OC(C)=O)[C@]5(CC)C=CCN6CC[C@]43[C@@H]65)C2)C1` [vincristine] + COc1cc(Nc2ncc(F)c(Nc3ccc4c(n3)NC(=O)C(C)(C)O4)n2)cc(OC)c1OC [Tamatinib] (first compound 0.0001 µM, partner dose 0.4 µM), for which the cell count in the assay on COLO792 is 56.2%; in the assay with COLO800 it was 94.9%; in the assay on COLO829, 82.8%; with G361, 89.8%; with IPC-298, 83.4%; with IST-MEL1, 87.8%. The cell count in the assay with LB2518-MEL was determined as 72.9%; with LOXIMVI, 78.6%; in the assay with MEL-HO, 102%.

Turning to `Cc1cc(Nc2cc(N3CCN(C)CC3)nc(Sc3ccc(NC(=O)C4CC4)cc3)n2)n[nH]1` [Tozasertib] + CCN(CC)CCCCNc1ncc2cc(-c3cc(OC)cc(OC)c3)c(NC(=O)NC(C)(C)C)nc2n1 [PD173074] (first compound 0.006 µM, partner dose 0.1 µM), the cell count in the assay with COLO792 was determined as 96.6%; in the assay on COLO800, 94.2%; with COLO829, 93.7%; with G361 it was 101%; in the assay with IPC-298, 94.5%; in the assay on IST-MEL1, 98.3%. The cell count with LB2518-MEL was 44.3%; in the assay on LOXIMVI, 74%; in the assay with MEL-HO it was 87.8%.

In the case of `CC[C@]1(O)C[C@H]2CN(CCc3c([nH]c4ccccc34)[C@@](C(=O)OC)(c3cc4c(cc3OC)N(C=O)[C@H]3[C@@](O)(C(=O)OC)[C@H](OC(C)=O)[C@]5(CC)C=CCN6CC[C@]43[C@@H]65)C2)C1` [vincristine] + CCc1ccc(CCOc2ccc(CC3SC(=O)NC3=O)cc2)nc1 [pioglitazone] (first compound 0.0001 µM, partner dose 2 µM), the cell count is 98.8% in the assay on COLO792; 110% in the assay on COLO800; 94.1% in the assay with COLO829; 98.7% in the assay with G361; 87.5% with IPC-298; 94.1% in the assay on IST-MEL1. For the same molecule, the cell count was determined as 72.8% with LB2518-MEL, 48.2% in the assay with LOXIMVI and 94.7% with MEL-HO.

In the case of `CC[C@]1(O)C[C@H]2CN(CCc3c([nH]c4ccccc34)[C@@](C(=O)OC)(c3cc4c(cc3OC)N(C=O)[C@H]3[C@@](O)(C(=O)OC)[C@H](OC(C)=O)[C@]5(CC)C=CCN6CC[C@]43[C@@H]65)C2)C1` [vincristine] + OCCn1cc(-c2cnc3nnn(Cc4ccc5ncccc5c4)c3n2)cn1 [PF04217903] (first compound 0.0001 µM, partner dose 1 µM), the cell count worked out at 96.4% in the assay with COLO792; 125% in the assay with COLO800; 77.7% in the assay on COLO829; 92.4% in the assay on G361; 97.8% with IPC-298; 98.3% in the assay on IST-MEL1. The figures for the cell count in the assay on LB2518-MEL, with LOXIMVI and in the assay on MEL-HO were 88.6%, 126% and 95.7%, respectively.

Consider `N#CC[C@H](C1CCCC1)n1cc(-c2ncnc3[nH]ccc23)cn1` [ruxolitinib] + COc1cc(Nc2ncc(F)c(Nc3ccc4c(n3)NC(=O)C(C)(C)O4)n2)cc(OC)c1OC [Tamatinib] (first compound 1 µM, partner dose 0.4 µM), for which the cell count in the assay on COLO792 was 53.5%; with COLO800, 85.5%; in the assay with COLO829, 90.1%; in the assay with G361 it was 97%; in the assay with IPC-298, 91.9%; in the assay with IST-MEL1, 95.2%. The cell count in the assay on LB2518-MEL worked out at 94.3%; with LOXIMVI it was 134%; with MEL-HO it was 89.8%.

Turning to `CC[C@]1(O)C[C@H]2CN(CCc3c([nH]c4ccccc34)[C@@](C(=O)OC)(c3cc4c(cc3OC)N(C=O)[C@H]3[C@@](O)(C(=O)OC)[C@H](OC(C)=O)[C@]5(CC)C=CCN6CC[C@]43[C@@H]65)C2)C1` [vincristine] + CC(C)CCN1c2nc(Nc3cc(F)c(O)c(F)c3)ncc2N(C)C(=O)C1C [BID1870] (first compound 0.0001 µM, partner dose 0.2 µM), the cell count in the assay on COLO792 came to 91.5%; with COLO800 it was 75.2%; with COLO829 it was 83.1%; in the assay on G361 it was 87.8%; in the assay with IPC-298, 93.3%; in the assay on IST-MEL1, 89.3%. Besides, the cell count came out at 90.6% in the assay with LB2518-MEL, 156% in the assay with LOXIMVI and 100% in the assay on MEL-HO.

As to `CC[C@]1(O)C[C@H]2CN(CCc3c([nH]c4ccccc34)[C@@](C(=O)OC)(c3cc4c(cc3OC)N(C=O)[C@H]3[C@@](O)(C(=O)OC)[C@H](OC(C)=O)[C@]5(CC)C=CCN6CC[C@]43[C@@H]65)C2)C1` [vincristine] + COc1cc(N2CCC(N3CCN(C)CC3)CC2)ccc1Nc1ncc(Cl)c(Nc2ccccc2S(=O)(=O)C(C)C)n1 [NVP-TAE684] (first compound 0.0001 µM, partner dose 0.08 µM), the cell count with COLO792 is 99.7%; in the assay on COLO800 it was 124%; with COLO829 it was 69.1%; in the assay on G361, 86.7%; in the assay with IPC-298 it was 108%; in the assay with IST-MEL1, 107%. Further, the cell count with LB2518-MEL came to 108%; in the assay with LOXIMVI it was 79.2%; in the assay with MEL-HO, 96.4%.

For `CC[C@]1(O)C[C@H]2CN(CCc3c([nH]c4ccccc34)[C@@](C(=O)OC)(c3cc4c(cc3OC)N(C=O)[C@H]3[C@@](O)(C(=O)OC)[C@H](OC(C)=O)[C@]5(CC)C=CCN6CC[C@]43[C@@H]65)C2)C1` [vincristine] + CCN(CC)CCCCNc1ncc2cc(-c3cc(OC)cc(OC)c3)c(NC(=O)NC(C)(C)C)nc2n1 [PD173074] (first compound 0.0001 µM, partner dose 0.1 µM), the cell count in the assay on COLO792 came out at 97.8%; with COLO800 it was 117%; in the assay with COLO829, 120%; in the assay with G361 it was 104%; in the assay on IPC-298 it was 102%; in the assay with IST-MEL1, 103%. In addition, the values for the cell count with LB2518-MEL, with LOXIMVI and in the assay with MEL-HO were 109%, 91.5% and 110%, respectively.

On to `Cc1cc(Nc2cc(N3CCN(C)CC3)nc(Sc3ccc(NC(=O)C4CC4)cc3)n2)n[nH]1` [Tozasertib] + CN(C)S(=O)(=O)c1ccc2c(c1)/C(=C/c1cc3c([nH]1)CCCC3)C(=O)N2 [SU6656] (first compound 0.006 µM, partner dose 0.4 µM), for which the cell count in the assay on COLO792 turned out to be 88.9%; with COLO800 it was 68.4%; in the assay on COLO829, 100%; in the assay with G361, 83.2%; in the assay on IPC-298 it was 99.8%; in the assay on IST-MEL1, 96.5%. Besides, the values for the cell count in the assay with LB2518-MEL, in the assay with LOXIMVI and in the assay on MEL-HO were 89.3%, 134% and 94.3%, respectively.

`N#CC[C@H](C1CCCC1)n1cc(-c2ncnc3[nH]ccc23)cn1` [ruxolitinib] + C[C@@H]1CCN(C(=O)CC#N)C[C@@H]1N(C)c1ncnc2[nH]ccc12 [CP690550] (first compound 1 µM, partner dose 1 µM): the cell count is 99.8% in the assay with COLO792; 136% with COLO800; 109% in the assay on COLO829; 111% in the assay with G361; 109% with IPC-298; 106% in the assay with IST-MEL1. For the same molecule, the values for the cell count with LB2518-MEL, with LOXIMVI and in the assay on MEL-HO were 129%, 154% and 111%, respectively.
